Experimental data reported in the supplement of paper PMC8728848.
Some of the results follow.

Columns and labels:
Test in all cases: glycan array binding signal (z-score within array); higher = stronger binding
Conditions in all cases: glycan notation: IUPAC condensed, linker removed
[1] = target: Gal(b1-4)GlcNAc(b1-2)Man(a1-3)[Gal(b1-4)GlcNAc(b1-2)Man(a1-6)]Man(b1-4)GlcNAc(b1-4)[Fuc(a1-6)]GlcNAc
Outline: (§1)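 Arrays were curated from the Consortium for Functional Glycomics database, 3228 in total, and kept only where the protein sequence was available. Binding is expressed as a within-array Z-score. This score was averaged across arrays of the same protein sequence at different concentrations or buffers and across linkers, and negative values can be read as non-binding.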

[2] = target: Gal(b1-4)GlcNAc(b1-2)Man(a1-3)[Gal(b1-4)GlcNAc(b1-2)Man(a1-6)][Gal(b1-4)GlcNAc(b1-4)]Man(b1-4)GlcNAc(b1-4)[Fuc(a1-6)]GlcNAc
Outline: as §1

[3] = target: Gal(b1-4)GlcNAc(b1-2)Man(a1-3)[Gal(b1-4)GlcNAc(b1-2)Man(a1-6)][GlcNAc(b1-4)]Man(b1-4)GlcNAc(b1-4)[Fuc(a1-6)]GlcNAc
Outline: as §1

[4] = target: Gal(b1-4)GlcNAc(b1-2)Man(a1-3)[GlcNAc(b1-2)Man(a1-6)]Man(b1-4)GlcNAc(b1-4)GlcNAc
Outline: as §1

[5] = target: Gal(b1-4)GlcNAc(b1-2)Man(a1-3)[GlcNAc(b1-4)][Gal(b1-4)GlcNAc(b1-2)Man(a1-6)]Man(b1-4)GlcNAc(b1-4)GlcNAc
Outline: as §1

[6] = target: Gal(b1-4)GlcNAc(b1-2)Man(a1-3)[Man(a1-6)]Man(b1-4)GlcNAc(b1-4)GlcNAc
Outline: as §1

[7] = target: Gal(b1-4)GlcNAc(b1-2)Man(a1-6)Man(b1-4)GlcNAc(b1-4)GlcNAc
Outline: as §1

[8] = target: Gal(b1-4)GlcNAc(b1-2)Man(a1-6)[GlcNAc(b1-2)Man(a1-3)]Man(b1-4)GlcNAc(b1-4)GlcNAc
Outline: as §1

[9] = target: Gal(b1-4)GlcNAc(b1-2)Man(a1-6)[Man(a1-3)]Man(b1-4)GlcNAc(b1-4)GlcNAc
Outline: as §1

[10] = target: Gal(b1-4)GlcNAc(b1-2)[Gal(b1-4)GlcNAc(b1-4)]Man(a1-3)[Gal(b1-4)GlcNAc(b1-2)Man(a1-6)]Man(b1-4)GlcNAc(b1-4)GlcNAc
Outline: as §1

[11] = target: Gal(b1-4)GlcNAc(b1-2)[Gal(b1-4)GlcNAc(b1-4)]Man(a1-3)[Gal(b1-4)GlcNAc(b1-2)[Gal(b1-4)GlcNAc(b1-6)]Man(a1-6)]Man(b1-4)GlcNAc(b1-4)GlcNAc
Outline: as §1

[12] = target: Gal(b1-4)GlcNAc(b1-2)[Gal(b1-4)GlcNAc(b1-4)]Man(a1-3)[GlcNAc(b1-4)][Gal(b1-4)GlcNAc(b1-2)Man(a1-6)]Man(b1-4)GlcNAc(b1-4)GlcNAc
Outline: as §1

[13] = target: Gal(b1-4)GlcNAc(b1-2)[Gal(b1-4)GlcNAc(b1-4)]Man(a1-3)[GlcNAc(b1-4)][Gal(b1-4)GlcNAc(b1-2)[Gal(b1-4)GlcNAc(b1-6)]Man(a1-6)]Man(b1-4)GlcNAc(b1-4)GlcNAc
Outline: as §1

[14] = target: Gal(b1-4)GlcNAc(b1-2)[Gal(b1-4)GlcNAc(b1-6)]Man(a1-6)[Gal(b1-4)GlcNAc(b1-2)Man(a1-3)]Man(b1-4)GlcNAc(b1-4)GlcNAc
Outline: as §1

[15] = target: Gal(b1-4)GlcNAc(b1-2)[Gal(b1-4)GlcNAc(b1-6)]Man(a1-6)[Gal(b1-4)GlcNAc(b1-2)Man(a1-3)]Man(b1-4)GlcNAc(b1-4)[Fuc(a1-6)]GlcNAc
Outline: as §1

[16] = target: Gal(b1-4)GlcNAc(b1-2)[Gal(b1-4)GlcNAc(b1-6)]Man(a1-6)[GlcNAc(b1-4)][Gal(b1-4)GlcNAc(b1-2)Man(a1-3)]Man(b1-4)GlcNAc(b1-4)GlcNAc
Outline: as §1

[17] = target: Gal(b1-4)GlcNAc(b1-2)[Gal(b1-4)GlcNAc(b1-6)]Man(a1-6)[GlcNAc(b1-4)][Gal(b1-4)GlcNAc(b1-2)[Gal(b1-4)GlcNAc(b1-4)]Man(a1-3)]Man(b1-4)GlcNAc(b1-4)[Fuc(a1-6)]GlcNAc
Outline: as §1

[18] = target: Gal(b1-4)GlcNAc(b1-3)Gal(b1-3)GalNAc
Outline: as §1

[19] = target: Gal(b1-4)GlcNAc(b1-3)Gal(b1-3)GlcNAc
Outline: as §1

B1: Cohesin-mDCIR (Macaca mulatta) (protein)
chain: GLDDLDAVRIKVDTVNAKPGDTVRIPVRFSGIPSKGIANCDFVYSYDPNVLEIIEIEPGDIIVDPNPDKSFDTAVYPDRKIIVFLFAEDSGTGAYAITKDGVFATIVAKVKEGAPNGLSVIKFVEVGGFANNDLVEQKTQFFDGGVNVGDTTEPATPTTPVTTPTTTDDLDAASFQKYSQLLEKMTTKDLVHTTLECVKKNMTTEETAWSCCPKNWKPFSSNCYFISTESASWQKSEKDCARMEAHLLVINTREEQDFIFQNLQEESAYFVGLSDPEGQRHWQWVDRTPYNESSTFWHPHEPSDPDERCVVLNFRKTPKRWGWNDVHCIVHQRSVCEMMKIHLHHHHHH
- glycan array binding signal (z-score) [1]: -0.178
- glycan array binding signal (z-score) [2]: -0.358
- glycan array binding signal (z-score) [3]: -0.464
- glycan array binding signal (z-score) [4]: -0.027
- glycan array binding signal (z-score) [5]: -0.333
- glycan array binding signal (z-score) [6]: -0.368
- glycan array binding signal (z-score) [7]: -0.323
- glycan array binding signal (z-score) [8]: -0.149
- glycan array binding signal (z-score) [9]: -0.405
- glycan array binding signal (z-score) [10]: -0.445
- glycan array binding signal (z-score) [11]: -0.431
- glycan array binding signal (z-score) [12]: -0.427
- glycan array binding signal (z-score) [13]: -0.417
- glycan array binding signal (z-score) [14]: -0.09
- glycan array binding signal (z-score) [15]: -0.269
- glycan array binding signal (z-score) [16]: -0.439
- glycan array binding signal (z-score) [17]: -0.425
- glycan array binding signal (z-score) [18]: -0.443
- glycan array binding signal (z-score) [19]: -0.404
